Data from the supplement of paper PMC9046079.
± gives the standard deviation of the averaged measurements. Some of the results follow.

Assays:
[1] = system: murine small intestinal organoids (ENR+CD Paneth differentiation); assay: cellular ATP (CellTiter-Glo 3D) relative to plate median (log10 fold change); higher = more viable cells; conditions: 6 d
[2] = system: murine small intestinal organoids (ENR+CD Paneth differentiation); assay: carbachol-stimulated secreted lysozyme activity relative to plate median (log10 fold change); higher = more Paneth cell lysozyme secretion; conditions: 6 d, carbachol 10 µM
[3] = system: murine small intestinal organoids (ENR+CD Paneth differentiation); assay: basal (non-stimulated) secreted lysozyme activity relative to plate median (log10 fold change); higher = more Paneth cell lysozyme secretion; conditions: 6 d
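Wherever basal (non-stimulated) secreted lysozyme activity relative to plate median is given: ISC-enriched organoid precursors grown as 2.5D pseudo-monolayer on Matrigel, compound given on day 0 and day 3, plate values LOESS-normalized before median fold change, three murine donors.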
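Wherever cellular ATP (CellTiter-Glo 3D) relative to plate median is given: 2.5D pseudo-monolayer culture of ISC-enriched organoids partly embedded atop Matrigel, compound added on day 0 and again on day 3, per-plate LOESS correction before median fold change.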

Row | Compound | cellular ATP (log10) ([1]; 0.08 µM) | cellular ATP (log10) ([1]; 0.4 µM) | cellular ATP (log10) ([1]; 2 µM) | cellular ATP (log10) ([1]; 10 µM) | carbachol-stimulated secreted lysozyme activity (log10) ([2]; 0.08 µM) | carbachol-stimulated secreted lysozyme activity (log10) ([2]; 0.4 µM) | carbachol-stimulated secreted lysozyme activity (log10) ([2]; 2 µM) | carbachol-stimulated secreted lysozyme activity (log10) ([2]; 10 µM) | basal (log10) ([3]; 0.08 µM) | basal (log10) ([3]; 0.4 µM) | basal (log10) ([3]; 2 µM) | basal (log10) ([3]; 10 µM)
1 | CC(C)NC[C@@H](C(=O)N1CCN(c2ncnc3c2[C@H](C)C[C@H]3O)CC1)c1ccc(Cl)cc1 | 0.0416 ± 0.054 | 0.118 ± 0.049 | 0.184 ± 0.13 | -0.0997 ± 0.16 | 0.0145 ± 0.04 | 0.0459 ± 0.15 | -0.111 ± 0.018 | -0.376 ± 0.0081 | 0.0358 ± 0.071 | 0.0539 ± 0.11 | -0.0775 ± 0.095 | -0.185 ± 0.11
2 | CC(C)(C#N)c1cc(Cn2cncn2)cc(C(C)(C)C#N)c1 [Anastrozole] | -0.117 ± 0.55 | 0.0238 ± 0.34 | -0.0583 ± 0.17 | -0.499 ± 0.55 | 0.0736 ± 0.044 | 0.15 ± 0.071 | -0.0104 ± 0.12 | -0.0983 ± 0.11 | 0.0351 ± 0.053 | 0.106 ± 0.064 | -0.003 ± 0.073 | -0.0666 ± 0.065
3 | CCc1c2c(nc3ccc(OC(=O)N4CCC(N5CCCCC5)CC4)cc13)-c1cc3c(c(=O)n1C2)COC(=O)[C@]3(O)CC [Irinotecan] | -0.111 ± 0.1 | -0.784 ± 0.34 | -0.785 ± 0.36 | -1.24 ± 0.29 | -0.0596 ± 0.1 | -0.178 ± 0.15 | -0.297 ± 0.059 | -0.325 ± 0.007 | -0.0313 ± 0.086 | -0.0724 ± 0.07 | -0.17 ± 0.058 | -0.163 ± 0.09
4 | CC(C)(F)C[C@H](N[C@@H](c1ccc(-c2ccc(S(C)(=O)=O)cc2)cc1)C(F)(F)F)C(=O)NC1(C#N)CC1 [Odanacatib (MK-0822)] | 0.119 ± 0.23 | 0.208 ± 0.31 | -0.00842 ± 0.33 | 0.00615 ± 0.4 | 0.154 ± 0.1 | 0.293 ± 0.3 | 0.109 ± 0.07 | -0.0572 ± 0.085 | 0.0864 ± 0.19 | 0.162 ± 0.28 | 0.0244 ± 0.11 | -0.0353 ± 0.1
5 | CCCC(C)NC(=O)c1ccc(Cl)c(Cl)c1 (centres undefined) | -0.0587 ± 0.046 | -0.0714 ± 0.2 | -0.0591 ± 0.13 | -0.0577 ± 0.14 | 0.0192 ± 0.057 | 0.186 ± 0.28 | -0.005 ± 0.06 | -0.0578 ± 0.052 | 0.00813 ± 0.013 | -0.0282 ± 0.028 | 0.0184 ± 0.015 | -0.0654 ± 0.052
6 | CC(C)C[C@@H](C(=O)N[C@H](C(=O)OC1CCCC1)c1ccccc1)[C@H](O)C(=O)NO [Tosedostat (CHR2797)] | -0.139 ± 0.15 | 0.0608 ± 0.079 | -0.165 ± 0.19 | -0.384 ± 0.35 | -0.222 ± 0.033 | -0.101 ± 0.14 | -0.144 ± 0.12 | -0.238 ± 0.25 | -0.0589 ± 0.17 | 0.000743 ± 0.17 | -0.0582 ± 0.072 | -0.136 ± 0.11
7 | C/C(=C\C(=O)Nc1ccccc1C(=O)O)c1ccc2ccccc2c1 | 0.223 ± 0.096 | -0.0472 ± 0.41 | -0.0336 ± 0.16 | 0.0302 ± 0.28 | 0.0539 ± 0.066 | 0.151 ± 0.095 | -0.0946 ± 0.09 | -0.148 ± 0.088 | 0.0323 ± 0.041 | 0.0433 ± 0.057 | -0.0135 ± 0.051 | -0.0616 ± 0.0064
8 | CCC(CC)CC1(C(=O)Nc2ccccc2SC(=O)C(C)C)CCCCC1 | 0.112 ± 0.36 | -0.00588 ± 0.2 | 0.0788 ± 0.23 | 0.136 ± 0.046 | -0.047 ± 0.028 | 0.0951 ± 0.3 | 0.12 ± 0.28 | -0.189 ± 0.039 | 0.0545 ± 0.09 | -0.0372 ± 0.1 | -0.034 ± 0.0088 | -0.0738 ± 0.063
9 | CCOC(=O)C1=C(C)NC(C)=C(C(=O)OC)C1c1cccc(Cl)c1Cl (centres undefined) [Felodipine] | -0.0783 ± 0.14 | -0.319 ± 0.39 | 0.0106 ± 0.024 | 0.0325 ± 0.087 | -0.0559 ± 0.024 | -0.0928 ± 0.01 | -0.0328 ± 0.041 | -0.101 ± 0.13 | 0.00114 ± 0.091 | -0.0327 ± 0.05 | 0.002 ± 0.063 | -0.056 ± 0.1
10 | O=C(Nc1cccnc1)N1CCC(Cc2cccc(Oc3ccc(C(F)(F)F)cn3)c2)CC1 | -0.0468 ± 0.26 | 0.0524 ± 0.19 | -0.103 ± 0.075 | -0.286 ± 0.12 | -0.0289 ± 0.15 | -0.0825 ± 0.017 | -0.068 ± 0.03 | -0.195 ± 0.12 | 0.0611 ± 0.033 | -0.0767 ± 0.0077 | -0.015 ± 0.019 | -0.131 ± 0.056
11 | CNC(=C[N+](=O)[O-])NCCSCc1ccc(CN(C)C)o1 [Ranitidine] | -0.0569 ± 0.61 | 0.0593 ± 0.39 | -0.121 ± 0.15 | -0.312 ± 0.25 | -0.064 ± 0.19 | -0.0451 ± 0.044 | -0.0482 ± 0.11 | -0.0862 ± 0.028 | -0.0239 ± 0.13 | -0.0328 ± 0.081 | -0.07 ± 0.013 | -0.0682 ± 0.033
12 | Cc1cc(Nc2ncc(Cl)c(Nc3ccccc3S(=O)(=O)C(C)C)n2)c(OC(C)C)cc1C1CCNCC1 | 0.135 ± 0.26 | 0.0041 ± 0.13 | -0.364 ± 0.44 | -1.29 ± 0.75 | 0.0589 ± 0.11 | -0.0824 ± 0.074 | -0.302 ± 0.17 | -0.577 ± 0.015 | 0.0614 ± 0.18 | -0.0534 ± 0.027 | -0.195 ± 0.039 | -0.338 ± 0.073
